# Reference: the supplement of paper PMC8728848
# Some of the results follow.
# Assays:
# Experiment in all cases: glycan array binding signal (z-score within array); higher = stronger binding
# Details in all cases: glycan notation: IUPAC condensed, linker removed
# Fuc(a1-3)GlcNAc = target: Fuc(a1-3)GlcNAc
# Method in brief: (§1)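 Arrays were curated from the Consortium for Functional Glycomics database, 3228 in total, and kept only where the protein sequence was available. Binding is expressed as a within-array Z-score. This score was averaged across arrays of the same protein sequence at different concentrations or buffers and across linkers, and negative values can be read as non-binding.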
# [1] = target: Fuc(a1-3)[Gal(b1-4)]Glc6S
# Method in brief: as §1
# [2] = target: Fuc(a1-3)[Gal(b1-4)]GlcNAc
# Method in brief: as §1
# [3] = target: Fuc(a1-3)[Gal(b1-4)]GlcNAc(b1-2)Man
# Method in brief: as §1
# [4] = target: Fuc(a1-3)[Gal(b1-4)]GlcNAc(b1-2)Man(a1-3)[Fuc(a1-3)[Gal(b1-4)]GlcNAc(b1-2)Man(a1-6)]Man(b1-4)GlcNAc(b1-4)GlcNAc
# Method in brief: as §1
# [5] = target: Fuc(a1-3)[Gal(b1-4)]GlcNAc(b1-2)Man(a1-3)[Fuc(a1-3)[Gal(b1-4)]GlcNAc(b1-2)Man(a1-6)]Man(b1-4)GlcNAc(b1-4)[Fuc(a1-6)]GlcNAc
# Method in brief: as §1
# [6] = target: Fuc(a1-3)[Gal(b1-4)]GlcNAc(b1-3)Gal(b1-3)[Fuc(a1-4)]GlcNAc
# Method in brief: as §1
# [7] = target: Fuc(a1-3)[Gal(b1-4)]GlcNAc(b1-3)Gal(b1-4)[Fuc(a1-3)]GlcNAc
# Method in brief: as §1
# [8] = target: Fuc(a1-3)[Gal(b1-4)]GlcNAc(b1-3)Gal(b1-4)[Fuc(a1-3)]GlcNAc(b1-3)Gal(b1-4)[Fuc(a1-3)]GlcNAc
# Method in brief: as §1
# [9] = target: Fuc(a1-3)[Gal(b1-4)]GlcNAc(b1-3)GalNAc
# Method in brief: as §1
# [10] = target: Fuc(a1-3)[Gal(b1-4)]GlcNAc(b1-6)GalNAc
# Method in brief: as §1
# [11] = target: Fuc(a1-3)[Gal(b1-4)]GlcNAc(b1-6)[Gal(b1-3)GlcNAc(b1-3)]Gal(b1-4)Glc
# Method in brief: as §1
# [12] = target: Fuc(a1-3)[Gal(b1-4)]GlcNAc6S
# Method in brief: as §1
# [13] = target: Fuc(a1-3)[Gal3S(b1-4)]Glc
# Method in brief: as §1
# [14] = target: Fuc(a1-3)[Gal3S(b1-4)]GlcNAc
# Method in brief: as §1
# [15] = target: Fuc(a1-3)[Gal3S(b1-4)]GlcNAc6S
# Method in brief: as §1
# [16] = target: Fuc(a1-3)[GalNAc(b1-4)]GlcNAc
# Method in brief: as §1
# [17] = target: Fuc(a1-3)[GalNAc(b1-4)]GlcNAc6S
# Method in brief: as §1
# Fuc(a1-4)GlcNAc = target: Fuc(a1-4)GlcNAc
# Method in brief: as §1
# Fuc(b1-3)GlcNAc = target: Fuc(b1-3)GlcNAc
# Method in brief: as §1
# Gal(a1-2)Gal = target: Gal(a1-2)Gal
# Method in brief: as §1
# Gal(a1-3)Gal = target: Gal(a1-3)Gal
# Method in brief: as §1
# Gal(a1-3)Gal(b1-3)GlcNAc = target: Gal(a1-3)Gal(b1-3)GlcNAc
# Method in brief: as §1
# [18] = target: Gal(a1-3)Gal(b1-3)GlcNAc(b1-2)Man
# Method in brief: as §1
# [19] = target: Gal(a1-3)Gal(b1-3)GlcNAc(b1-2)Man(a1-3)[Gal(a1-3)Gal(b1-3)GlcNAc(b1-2)Man(a1-6)]Man(b1-4)GlcNAc(b1-4)GlcNAc
# Method in brief: as §1
# [20] = target: Gal(a1-3)Gal(b1-3)GlcNAc(b1-3)GalNAc
# Method in brief: as §1
# [21] = target: Gal(a1-3)Gal(b1-3)GlcNAc(b1-6)GalNAc
# Method in brief: as §1
# [22] = target: Gal(a1-3)Gal(b1-3)[Fuc(a1-4)]GlcNAc(b1-2)Man(a1-3)[Gal(a1-3)Gal(b1-3)[Fuc(a1-4)]GlcNAc(b1-2)Man(a1-6)]Man(b1-4)GlcNAc(b1-4)GlcNAc
# Method in brief: as §1
# Gal(a1-3)Gal(b1-4)Glc = target: Gal(a1-3)Gal(b1-4)Glc
# Method in brief: as §1
# Gal(a1-3)Gal(b1-4)GlcNAc = target: Gal(a1-3)Gal(b1-4)GlcNAc
# Method in brief: as §1
# [23] = target: Gal(a1-3)Gal(b1-4)GlcNAc(b1-2)Man
# Method in brief: as §1
# [24] = target: Gal(a1-3)Gal(b1-4)GlcNAc(b1-2)Man(a1-3)[Gal(a1-3)Gal(b1-4)GlcNAc(b1-2)Man(a1-6)]Man(b1-4)GlcNAc(b1-4)GlcNAc
# Method in brief: as §1
# [25] = target: Gal(a1-3)Gal(b1-4)GlcNAc(b1-3)GalNAc
# Method in brief: as §1
# [26] = target: Gal(a1-3)Gal(b1-4)GlcNAc(b1-6)GalNAc
# Method in brief: as §1
# [27] = target: Gal(a1-3)Gal(b1-4)[Fuc(a1-3)]GlcNAc
# Method in brief: as §1
# [28] = target: Gal(a1-3)Gal(b1-4)[Fuc(a1-3)]GlcNAc(b1-2)Man(a1-3)[Gal(a1-3)Gal(b1-4)[Fuc(a1-3)]GlcNAc(b1-2)Man(a1-6)]Man(b1-4)GlcNAc(b1-4)GlcNAc
# Method in brief: as §1
# Gal(a1-3)GalNAc = target: Gal(a1-3)GalNAc
# Method in brief: as §1
# [29] = target: Gal(a1-3)[Gal(a1-4)]Gal(b1-4)GlcNAc
# Method in brief: as §1
# [30] = target: Gal(a1-4)Gal(b1-3)GlcNAc(b1-2)Man(a1-3)[Gal(a1-4)Gal(b1-3)GlcNAc(b1-2)Man(a1-6)]Man(b1-4)GlcNAc(b1-4)GlcNAc
# Method in brief: as §1
# Gal(a1-4)Gal(b1-4)Glc = target: Gal(a1-4)Gal(b1-4)Glc
# Method in brief: as §1
# Gal(a1-4)Gal(b1-4)GlcNAc = target: Gal(a1-4)Gal(b1-4)GlcNAc
# Method in brief: as §1
# [31] = target: Gal(a1-4)Gal(b1-4)GlcNAc(b1-2)Man(a1-3)[Gal(a1-4)Gal(b1-4)GlcNAc(b1-2)Man(a1-6)]Man(b1-4)GlcNAc(b1-4)GlcNAc
# Method in brief: as §1
# [32] = target: Gal(a1-4)Gal(b1-4)GlcNAc(b1-3)Gal(b1-4)Glc
# Method in brief: as §1
# Gal(a1-4)GlcNAc = target: Gal(a1-4)GlcNAc
# Method in brief: as §1
# Gal(a1-6)Glc = target: Gal(a1-6)Glc
# Method in brief: as §1
binder,measurement,setting,value
GNL (Galanthus nivalis) (protein) MGHHHHHHHHYGTLENGHWLMVGMSIFSKDRTVELRMQDDGKLAIYYNDHCAWQSTAQQVNNAKGAVMQGDGNFCIYDKNGKATWHTNTAAPSGDSHTFVSVQDDGNLVLYKNNGATPIWSSKSNK,glycan array binding signal (z-score),Fuc(a1-3)GlcNAc,-0.235
same,glycan array binding signal (z-score),[1],-0.266
same,glycan array binding signal (z-score),[2],-0.252
same,glycan array binding signal (z-score),[3],-0.18
same,glycan array binding signal (z-score),[4],0.774
same,glycan array binding signal (z-score),[5],-0.176
same,glycan array binding signal (z-score),[6],-0.245
same,glycan array binding signal (z-score),[7],-0.208
same,glycan array binding signal (z-score),[8],-0.24
same,glycan array binding signal (z-score),[9],-0.167
same,glycan array binding signal (z-score),[10],-0.213
same,glycan array binding signal (z-score),[11],-0.224
same,glycan array binding signal (z-score),[12],-0.239
same,glycan array binding signal (z-score),[13],-0.237
same,glycan array binding signal (z-score),[14],-0.069
same,glycan array binding signal (z-score),[15],-0.266
same,glycan array binding signal (z-score),[16],0.274
same,glycan array binding signal (z-score),[17],-0.181
same,glycan array binding signal (z-score),Fuc(a1-4)GlcNAc,-0.198
same,glycan array binding signal (z-score),Fuc(b1-3)GlcNAc,-0.156
same,glycan array binding signal (z-score),Gal(a1-2)Gal,-0.287
same,glycan array binding signal (z-score),Gal(a1-3)Gal,-0.245
same,glycan array binding signal (z-score),Gal(a1-3)Gal(b1-3)GlcNAc,-0.269
same,glycan array binding signal (z-score),[18],-0.211
same,glycan array binding signal (z-score),[19],-0.127
same,glycan array binding signal (z-score),[20],-0.231
same,glycan array binding signal (z-score),[21],-0.22
same,glycan array binding signal (z-score),[22],-0.108
same,glycan array binding signal (z-score),Gal(a1-3)Gal(b1-4)Glc,-0.279
same,glycan array binding signal (z-score),Gal(a1-3)Gal(b1-4)GlcNAc,-0.275
same,glycan array binding signal (z-score),[23],-0.268
same,glycan array binding signal (z-score),[24],3.44
same,glycan array binding signal (z-score),[25],-0.119
same,glycan array binding signal (z-score),[26],-0.264
same,glycan array binding signal (z-score),[27],-0.243
same,glycan array binding signal (z-score),[28],-0.054
same,glycan array binding signal (z-score),Gal(a1-3)GalNAc,-0.219
same,glycan array binding signal (z-score),[29],-0.01
same,glycan array binding signal (z-score),[30],4.92
same,glycan array binding signal (z-score),Gal(a1-4)Gal(b1-4)Glc,-0.168
same,glycan array binding signal (z-score),Gal(a1-4)Gal(b1-4)GlcNAc,-0.126
same,glycan array binding signal (z-score),[31],5.71
same,glycan array binding signal (z-score),[32],-0.189
same,glycan array binding signal (z-score),Gal(a1-4)GlcNAc,-0.291
same,glycan array binding signal (z-score),Gal(a1-6)Glc,-0.324
